Results published in paper PMC9381947 (Antiviral Research, 2022).

System: influenza A virus (IAV) H1N1
Test: Antiviral assay in MDCK cells
Conditions: 48 h, qRT-PCR, listed as PUG

O=C1O[C@@H]2[C@@H](OC(=O)c3cc(O)c(O)c(O)c3-c3c1cc(O)c(O)c3O)[C@H](O)O[C@@H]1COC(=O)c3cc(O)c(O)c(O)c3-c3c(O)c(O)c4oc(=O)c5c(c(O)c(O)c6oc(=O)c3c4c65)-c3c(cc(O)c(O)c3O)C(=O)O[C@@H]21 [Punicalagin, 2,3-hexahydroxydiphenoyl-gallagyl-D-glucose]
antiviral effect against H1N1: did not show detectable antiviral effects
